# In PubChem BioAssay AID1347165 (National Center for Advancing Translational Sciences (NCATS), 2019):
# The whole screen tested about 220,000 compounds, of which about 5,700 (2.6%) were called active. This list was built around the results that the source calls inconclusive (neither active nor inactive); the mix of calls is not that of the screen. Calls come from the whole dose curve; as a rule, active = well fitted inhibition curve with a large enough effect; inconclusive = small, poorly fitted or top-dose-only effect; inactive = no such curve, though single readings can be large or run the other way. Where the call is inconclusive, the potency comes from a doubtful curve fit.
# Biological target: Lysine-specific demethylase 5B (Homo sapiens) (UniProt Q9UGL1)
# UniProt Q9UGL1, sequence (Q9UGL1 whole entry, looked up): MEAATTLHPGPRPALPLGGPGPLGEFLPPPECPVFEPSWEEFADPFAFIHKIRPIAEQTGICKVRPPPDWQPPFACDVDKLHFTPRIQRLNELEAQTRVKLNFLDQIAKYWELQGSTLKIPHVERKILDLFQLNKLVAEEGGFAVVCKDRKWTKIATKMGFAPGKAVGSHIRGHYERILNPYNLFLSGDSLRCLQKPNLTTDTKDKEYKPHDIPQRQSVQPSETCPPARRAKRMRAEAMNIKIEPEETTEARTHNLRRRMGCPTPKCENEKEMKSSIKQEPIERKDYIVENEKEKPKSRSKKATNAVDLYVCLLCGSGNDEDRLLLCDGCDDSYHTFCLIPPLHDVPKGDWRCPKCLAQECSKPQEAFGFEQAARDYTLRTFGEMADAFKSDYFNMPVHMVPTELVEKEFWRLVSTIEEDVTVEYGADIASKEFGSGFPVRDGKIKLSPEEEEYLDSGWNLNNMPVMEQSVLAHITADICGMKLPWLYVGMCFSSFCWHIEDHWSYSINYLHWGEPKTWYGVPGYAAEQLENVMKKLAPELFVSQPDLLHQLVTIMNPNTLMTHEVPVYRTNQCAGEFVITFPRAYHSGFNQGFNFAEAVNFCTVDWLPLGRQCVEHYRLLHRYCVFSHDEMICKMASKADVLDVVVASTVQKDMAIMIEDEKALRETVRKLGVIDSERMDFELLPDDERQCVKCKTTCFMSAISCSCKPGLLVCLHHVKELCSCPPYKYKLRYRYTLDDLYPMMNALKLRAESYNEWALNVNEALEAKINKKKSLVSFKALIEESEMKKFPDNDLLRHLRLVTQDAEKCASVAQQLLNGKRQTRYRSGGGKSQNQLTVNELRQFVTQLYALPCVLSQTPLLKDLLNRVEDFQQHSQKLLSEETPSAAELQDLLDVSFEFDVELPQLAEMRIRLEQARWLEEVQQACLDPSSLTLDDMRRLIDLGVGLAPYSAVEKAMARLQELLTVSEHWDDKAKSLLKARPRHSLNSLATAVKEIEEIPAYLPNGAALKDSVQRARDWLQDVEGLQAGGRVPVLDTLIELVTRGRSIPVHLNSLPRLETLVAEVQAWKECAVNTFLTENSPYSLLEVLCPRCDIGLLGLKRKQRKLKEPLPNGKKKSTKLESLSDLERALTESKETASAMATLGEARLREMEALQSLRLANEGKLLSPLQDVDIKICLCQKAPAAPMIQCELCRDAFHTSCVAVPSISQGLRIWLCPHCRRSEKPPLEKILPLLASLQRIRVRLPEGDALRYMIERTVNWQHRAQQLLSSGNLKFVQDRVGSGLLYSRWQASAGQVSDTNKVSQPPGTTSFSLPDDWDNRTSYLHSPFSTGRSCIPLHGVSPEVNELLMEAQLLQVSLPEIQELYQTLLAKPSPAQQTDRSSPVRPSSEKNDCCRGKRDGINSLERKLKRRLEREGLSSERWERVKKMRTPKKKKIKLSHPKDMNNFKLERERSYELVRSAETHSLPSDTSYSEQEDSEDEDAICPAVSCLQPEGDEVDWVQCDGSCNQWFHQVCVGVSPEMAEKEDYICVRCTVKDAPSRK
# Test: Primary screen for KDM5B Histone Demethylases FDH-coupled qHTS; note: nearly all actives have a fitted effect of over 70% in size; for activity change, negative = inhibition: 0% is about no effect
# Conditions: FDH-coupled NADH fluorescence (FDH is formaldehyde dehydrogenase); activity change, negative = inhibition: at 57.7 µM (top of the series) unless noted
# In short: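 Here, H3K4me3 peptide (12.5 µM in substrate mix) is demethylated by KDM5BΔAP, 200 nM final, after 10 min compound exposure. Formaldehyde product is coupled through FDH (0.25 U/mL in mix) to NADH fluorescence; 30-min ΔRFU feeds dose-response curves.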
# Potency is the fitted concentration of half-maximal effect; tags give direction and shape of the fitted curve.
Structure (SMILES),"activity change, negative = inhibition",Potency
CC(=O)N1CCC2(CC1)C(=O)NN=C2c1ccncc1,inactive: -1.12% [at 86.2 µM],
COc1cc2ccccc2cc1C(=O)Nc1ccc(NC(=O)c2cccs2)cc1,,"inconclusive: 25.1 µM [inhibitor, single point]"
COc1ccc(/C=C/c2ccc3c(c2)C(=O)N2C[C@@H](NS(C)(=O)=O)C[C@H]2C(=O)N3)cc1,,"inconclusive: 25.1 µM [inhibitor, partial curve, poor fit]"
N#C/C(=C/c1ccc(-c2ccccc2)cc1)C(=O)c1ccsc1,,"inconclusive: 14.1 µM [inhibitor, partial curve, poor fit]"
CC(CCc1ccccc1)NC(=O)c1ccc(Cn2ccn3nc4c(c3c2=O)CCCC4)cc1 (stereo unspecified),,active: 35.5 µM
Cn1c(=O)n(C)c2cc(CNCc3ccc(F)cc3)ccc21,inactive: 2.42%,
COc1ccc(C(C)NC(=O)c2noc(-c3ccc4c(c3)OCO4)n2)cc1 (stereo unspecified),,"inconclusive: 39.8 µM [inhibitor, single point]"
Cc1cnn(CC(=O)N2CCCCCCNC(=O)[C@@H]3CCCC[C@@H]32)c1,,"inconclusive: 15.8 µM [inhibitor, partial curve, poor fit]"
O=c1n(Cc2ccc([N+](=O)[O-])cc2)c2ccccc2c2nc(-c3ccccc3)nn12,,"inconclusive: 3.16 µM [inhibitor, full curve, poor fit]"
COc1ccc(CCNC(=O)Cc2c(C)c3ccc(O)c(C)c3oc2=O)cc1OC,,"inconclusive: 20 µM [inhibitor, partial curve, poor fit]"
CC(C)c1ccc(NC(=O)COC(=O)C2CCN(c3ccc(C(F)(F)F)cn3)CC2)cc1,,"inconclusive: 22.4 µM [inhibitor, partial curve, poor fit]"
COc1ccc(NC(=O)c2cccc3c2CCN3C(=O)c2ccc(F)cc2)c(OC)c1,,"inconclusive: 39.8 µM [inhibitor, partial curve, poor fit]"
COc1ccccc1-c1[nH]ncc1CN1CCn2nnc(CCC(=O)N3CCCC3)c2C1,inactive: -3.82%,
CC(=O)Nc1ccc(NC(=O)CCCN(c2ccc(Cl)cc2)S(C)(=O)=O)cc1,,"inconclusive: 39.8 µM [inhibitor, single point]"
CCOCCOC1CCN(C(=O)c2cccc3[nH]ccc23)CC1,,"inconclusive: 25.1 µM [inhibitor, single point]"
CCc1nc(-c2c3n(c(=O)n(CC(=O)Nc4ccc(Cl)cc4F)c2=O)CCCC3)no1,inactive: 21.9%,
CCc1cc(=O)oc2cc(OCC(=O)NCc3ccncc3)c(Cl)cc12,,"inconclusive: 14.1 µM [inhibitor, partial curve, poor fit]"
CN1CCN(Cc2nc(C3(O)CCN(Cc4ccccc4F)CC3)cs2)CC1,,"inconclusive: 1.41 µM [inhibitor, partial curve, poor fit]"
Cc1cc(C(=O)Nc2nnc(C3CC3)s2)c2ccccc2n1,inactive: 1.32%,
CCN(C(=O)c1nn(C)c2c1CSc1ccccc1-2)c1cccc(C)c1,,"inconclusive: 25.1 µM [inhibitor, partial curve, poor fit]"
Cc1cnc(C(=O)NC2CCc3nn(CC4CC4)c(=O)n3CC2)cn1 (stereo unspecified),inactive: -6.31%,

Structure (SMILES),"activity change, negative = inhibition",Potency
CC(C)OCCCNC(=O)Cn1c(-c2cccs2)cc2cc(F)ccc21,,"inconclusive: 28.2 µM [inhibitor, partial curve, poor fit]"
CC(C(=O)N1CCCN(c2cc(-c3ccccc3)[nH]n2)CC1)c1ccccc1 (stereo unspecified),,"inconclusive: 14.1 µM [inhibitor, partial curve, poor fit]"
Cc1ccc2nc(CSc3nc(C)nc4ccccc34)cn2c1,inactive: -21%,
O=C1NCCN2CC3(CCN(S(=O)(=O)c4cccc5cccnc45)CC3)CC12 (stereo unspecified),,"inconclusive: 14.1 µM [inhibitor, partial curve, poor fit]"
CCOc1ccc2c(C)c(-c3ccccc3)c(=O)oc2c1,,"inconclusive: 28.2 µM [inhibitor, partial curve, poor fit]"
CCc1noc(CN2CCN(c3oc(-c4ccco4)nc3C#N)CC2)n1,,"inconclusive: 22.4 µM [inhibitor, partial curve, poor fit]"
Cc1cc(F)ccc1-c1[nH]nc2ncc(-c3cccnc3)nc12,,"inconclusive: 56.2 µM [inhibitor, single point]"
CCOC(=O)c1cc2c(=O)n3ccccc3nc2n(CC2CCCO2)c1=NC(=O)c1ccc(OCC)cc1 (stereo unspecified),,"inconclusive: 28.2 µM [inhibitor, partial curve, poor fit]"
CN(Cc1ccccc1)C(=O)c1c[nH]c2ccc(S(=O)(=O)Nc3ccccc3F)cc2c1=O,,"inconclusive: 4.47 µM [inhibitor, partial curve, poor fit]"
Cn1c(SCc2cc(=O)n3[nH]cc(C#N)c3n2)nnc1-c1ccc(C(C)(C)C)cc1,,"inconclusive: 15.8 µM [inhibitor, partial curve, poor fit]"
c1ccc(-c2nnc3ccc(NC4CCCCC4)nn23)nc1,,"inconclusive: 31.6 µM [inhibitor, single point]"
Cc1c(-c2cccc(NC(=O)Cc3ccccc3)c2)nc2ncccn12,,"inconclusive: 17.8 µM [inhibitor, partial curve, poor fit]"
COc1ccc(C)cc1-n1nnnc1SCC(=O)N1CCN(CC(=O)N2CCCC2)CC1,,"inconclusive: 39.8 µM [inhibitor, single point]"
O=C(Cn1ccn(-c2ccc(F)c(F)c2)c(=O)c1=O)NCc1ccccc1,,"inconclusive: 44.7 µM [inhibitor, single point]"
Nc1ncc(C(=O)N2CCCC3(CCOC3)C2)c(-c2ccccc2)n1 (stereo unspecified),,"inconclusive: 17.8 µM [inhibitor, partial curve, poor fit]"
COc1ccc(-c2cc(N3CCN(C(=O)c4ccccc4Br)CC3)n[nH]2)cc1,,"inconclusive: 35.5 µM [inhibitor, partial curve]"
Cc1noc(-c2cccc(OC3CN(C(=O)NCc4ccc(F)cc4)C3)c2)n1,inactive: -7.47%,
CCc1[nH]ncc1C(=O)N[C@H]1CC[C@H](Nc2nccc(-c3ccccn3)n2)C1,,active: 12.6 µM
CCCCC(=O)Nc1cc(-c2cn3cccnc3n2)ccc1C,,"inconclusive: 1 µM [inhibitor, full curve, poor fit]"
CSCC(=O)N[C@H]1CCN2C(=O)c3ccc(Cl)cc3NC(=O)[C@@H]2C1,,"inconclusive: 39.8 µM [inhibitor, partial curve]"
CCCOc1ccccc1NC(=O)CCc1c(C)c2ccc(OC)cc2oc1=O,,"inconclusive: 25.1 µM [inhibitor, partial curve, poor fit]"

Structure (SMILES),"activity change, negative = inhibition",Potency
O=C1/C(=C/c2ccc(F)cc2)Oc2cc(OC(=O)N3CCOCC3)ccc21,,"inconclusive: 39.8 µM [inhibitor, single point]"
Cn1nc(C(=O)OCCOc2ccccc2)c2ccccc2c1=O,inactive: 9.34%,
CCOC(=O)C1=C(CN(CC)Cc2ccccc2)NC(=O)NC1c1ccc(Cl)cc1 (stereo unspecified),,"inconclusive: 25.1 µM [inhibitor, single point]"
COc1ccccc1N1CCCc2ncc(C(=O)NCCc3ccccc3)cc21,,"inconclusive: 28.2 µM [inhibitor, partial curve, poor fit]"
Cc1nn(C)cc1-c1ccnc(NCCCN2CCCC(CO)C2)n1 (stereo unspecified),,"inconclusive: 28.2 µM [inhibitor, partial curve, poor fit]"
COc1ccc2c(C)c(CC(=O)NCCCOC(C)C)c(=O)oc2c1OC,,"inconclusive: 20 µM [inhibitor, partial curve, poor fit]"
Cc1ccc(F)cc1NC(=O)c1nc2ccccc2nc1N1CCOCC1,inactive: -12.6%,
COc1ccc(-n2c(=O)c3c(c4cc(OC)ccc4n3C)n(Cc3c(F)cccc3Cl)c2=O)cc1,,"inconclusive: 11.2 µM [inhibitor, partial curve, poor fit]"
COc1cccc(CCNC(=O)c2cnc3sc(N4CCCC4)nn3c2=O)c1,,"inconclusive: 31.6 µM [inhibitor, partial curve, poor fit]"
COCCN1C(=O)c2ccccc2C(C(=O)Nc2ccccc2OC)C12CCCC2 (stereo unspecified),,"inconclusive: 15.8 µM [inhibitor, partial curve]"
C=CCOc1cccc(-c2nc(C(=O)N(C)Cc3ccccc3)cs2)c1,,"inconclusive: 20 µM [inhibitor, single point]"
O=C(NCCc1ccc(Cl)cc1)C1CCCN(c2nc3ncccc3o2)C1 (stereo unspecified),,"inconclusive: 22.4 µM [inhibitor, partial curve, poor fit]"
COc1ccccc1CC(=O)N1CC[C@@H]2NC(=O)[C@H]3C[C@H](NC(=O)C4CCCC4)CN3C(=O)[C@H]21,inactive: -10.7%,
O=C(NCc1ccncc1)c1cc(C2CC2)nc2onc(C3CCNC3)c12 (stereo unspecified),,"inconclusive: 56.2 µM [inhibitor, partial curve, poor fit]"
CCCCNC(=O)Cc1csc2nc(C)c(-c3cc(C)n(-c4ccc(C)cc4C)n3)c(=O)n12,,"inconclusive: 25.1 µM [inhibitor, partial curve, poor fit]"
Cc1ccc(Nc2c3c(nc4ccccc24)CCC3)cc1F,,"inconclusive: 11.2 µM [inhibitor, partial curve, poor fit]"
CCc1ccc(-c2nc3cc(NC(=O)c4ccc(F)cc4)ccc3o2)cc1,,"inconclusive: 44.7 µM [inhibitor, single point]"
O=C(CCc1ccccc1F)NCc1nc2ccccc2s1,,"inconclusive: 20 µM [inhibitor, partial curve, poor fit]"
O=C1COCC2(CN1Cc1ccccc1)CN(c1cccnc1)C2,,"inconclusive: 28.2 µM [inhibitor, partial curve, poor fit]"
